# About 14,000 (4.5%) of roughly 310,000 compounds showed an effect of 50% or more. Effects have a minus sign here. The list shows a part of the results.
# Molecular target: human ether-à-go-go-related gene (hERG) potassium channel (human, UniProt Q12809)
# Experiment: primary screen, population patch clamp on CHO cells stably expressing hERG
# 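Further: peak tail current of the secondary pulse compared with the same well before compound.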
# Chain of human ether-à-go-go-related gene (hERG) potassium channel (Q12809 whole entry, looked up): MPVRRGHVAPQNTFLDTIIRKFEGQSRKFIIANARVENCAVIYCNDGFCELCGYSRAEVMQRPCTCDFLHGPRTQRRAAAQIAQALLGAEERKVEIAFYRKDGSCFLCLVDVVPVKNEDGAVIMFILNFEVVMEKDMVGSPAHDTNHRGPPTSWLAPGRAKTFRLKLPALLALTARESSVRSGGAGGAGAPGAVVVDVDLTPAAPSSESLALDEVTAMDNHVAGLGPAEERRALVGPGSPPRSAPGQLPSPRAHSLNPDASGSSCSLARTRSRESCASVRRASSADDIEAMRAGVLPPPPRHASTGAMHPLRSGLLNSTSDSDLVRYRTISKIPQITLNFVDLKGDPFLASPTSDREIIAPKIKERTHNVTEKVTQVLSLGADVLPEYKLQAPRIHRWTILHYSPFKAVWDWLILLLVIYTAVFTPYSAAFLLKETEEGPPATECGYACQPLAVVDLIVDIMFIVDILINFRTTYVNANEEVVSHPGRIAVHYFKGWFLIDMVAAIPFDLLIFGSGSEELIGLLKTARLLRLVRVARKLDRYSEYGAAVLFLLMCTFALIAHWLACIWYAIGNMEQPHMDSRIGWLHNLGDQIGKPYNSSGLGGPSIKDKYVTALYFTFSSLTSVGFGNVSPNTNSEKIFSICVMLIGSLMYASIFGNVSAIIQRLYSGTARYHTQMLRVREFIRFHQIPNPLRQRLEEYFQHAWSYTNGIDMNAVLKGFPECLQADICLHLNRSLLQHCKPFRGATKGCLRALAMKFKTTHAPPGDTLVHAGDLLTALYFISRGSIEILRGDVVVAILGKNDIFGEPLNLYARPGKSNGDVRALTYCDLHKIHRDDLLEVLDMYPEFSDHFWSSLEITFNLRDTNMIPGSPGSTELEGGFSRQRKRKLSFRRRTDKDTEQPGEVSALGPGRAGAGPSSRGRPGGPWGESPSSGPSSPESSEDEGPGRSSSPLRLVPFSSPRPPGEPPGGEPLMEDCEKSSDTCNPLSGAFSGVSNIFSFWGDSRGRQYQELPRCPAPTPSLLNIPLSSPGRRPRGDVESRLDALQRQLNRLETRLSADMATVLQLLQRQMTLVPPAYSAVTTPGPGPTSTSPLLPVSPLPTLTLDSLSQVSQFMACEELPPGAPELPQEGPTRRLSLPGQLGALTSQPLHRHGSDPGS
row,Structure (SMILES),"hERG current change (%, negative = inhibition) at 10uM"
1,CN(C(=O)COC(=O)c1cc(NS(=O)(=O)c2cc([N+](=O)[O-])ccc2Cl)ccc1O)C1CCCCC1,-17.1%
2,Nc1ccc(C(=O)OCC(=O)NC2CCCc3ccccc32)cc1[N+](=O)[O-] (stereo not shown),-2.26%
3,CN1CCN(S(=O)(=O)c2ccc3c(c2)CC(=O)N3C)CC1,4.24%
4,CC(NC(=O)OC(C)(C)C)C(=O)Oc1cc2oc(=O)cc(-c3ccccc3)c2cc1Cl (stereo not shown),-0.559%
5,Cc1ccc(Sc2nc(C)cc(C)c2S(C)(=O)=O)cc1,2.54%
6,O=C(O)CSc1nnc(COc2ccc([N+](=O)[O-])cc2)n1-c1ccccc1,12.3%
7,CCN(c1ccc(OC)cc1)S(=O)(=O)c1nnc(NC(=O)COc2ccc(F)cc2)s1,18.6%
8,CCC(C)c1ccc(OCC(=O)Nc2ccc(CN3CCOCC3)cc2)cc1 (stereo not shown),-36.2%
9,O=C(CSCc1c(F)cccc1Cl)Nc1cccnc1,-3.54%
10,CN(C)C(=O)c1ccc(-n2cnc3ccccc3c2=O)cc1,8.8%
11,COc1ccc(/C=N/NC(=O)CN(C2=NS(=O)(=O)c3ccccc32)c2ccccc2)cc1,1.4%
12,CC(=O)SC(C)CC(=O)NCc1ccccc1 (stereo not shown),22.7%
13,Cc1ccc(F)cc1NCC(=O)Nc1ccc(Br)cc1,13.1%
14,CC(C)(C)c1ccc(CS(=O)(=O)CC2(O)CCN(C(=O)c3cccc(C(F)(F)F)c3)CC2)cc1,1.21%
15,COC(=O)C1=C(c2ccc3ccccc3c2)C[C@@H]2CC[C@H]1N2C(=O)N1CCCC1,0.423%
16,CN=C(c1ccccc1)c1c(C)cccc1C,-2.39%
17,CC(C)N(CCCNC(=O)c1ccc(N2CCCC2=O)cc1)Cc1ccccc1,-4.69%
18,O=C(Cc1ccc(Cl)cc1)c1c[nH]c(C(=O)NCCCN2CCOCC2)c1,-38.5%
19,CN1CCN(CCNC(=O)Cn2c(=O)c3cccn3c3ccc(F)cc32)CC1,14.1%
20,Cc1ccccc1N=C1NN=C(c2ccccc2F)CS1,13.1%
21,CC(Sc1nc2ccccc2o1)C(=O)O (stereo not shown),7.4%
22,CSc1ncccc1C(=O)OCC(=O)NC(N)=O,17.9%
23,Cc1ccccc1-n1c(SCc2ccccn2)nc2n[nH]c(C)c2c1=N,-1.97%

row,Structure (SMILES),"hERG current change (%, negative = inhibition) at 10uM"
1,Cc1nc(NCCc2ccc(Cl)cc2)c2nnn(Cc3ccccc3)c2n1,16.2%
2,CC(C)(C)OC(=O)N1CCC(NC(=O)c2[nH]cnc2C(=O)Nc2cccc(Cl)c2)CC1,14.5%
3,COc1ccc(NC(=O)CNC(=O)Cc2cccc3ccccc23)c(OC)c1,2.01%
4,Cc1ccc(OCC(O)CN2CCCC2)cc1 (stereo not shown),11.5%
5,Clc1ccccc1Nc1ncnc(-n2cccc2)n1,-1.62%
6,CCCCOc1ccc(C(=O)N2CCCC2)cc1,-13.4%
7,COc1ccc2cc(CN(C(=O)Nc3ccccc3OC)C3CCCC3)c(=O)[nH]c2c1,-46.9%
8,CC(NC(=O)CN1CCc2ccccc21)c1ccccc1 (stereo not shown),8.5%
9,CC(C)CCn1c(N2CCC(C(N)=O)CC2)nc2c1c(=O)[nH]c(=O)n2C,11.1%
10,COC(=O)c1cccc(NC(=S)N2CCCCC2)c1,14.1%
11,O=C(Nc1ccccc1C(=O)N1CCOCC1)c1cccnc1,-6.93%
12,CC(C)=CCC(C)(C)C1OCCN1C(=O)Nc1ccccc1 (stereo not shown),-9.69%
13,CCC(Sc1nc2ncccc2[nH]1)C(=O)N1CCOCC1 (stereo not shown),-10%
14,CC(C)(C)c1cc(CN2CCC(O)CC2)cc(C(C)(C)C)c1O,-70.1%
15,O=c1cc(N2CCCCC2)c(-c2ccccc2)nn1Cc1cccc(Cl)c1,0.996%
16,S=C(NCC1CCCO1)N1CCN(c2cccc(Cl)c2)CC1 (stereo not shown),-17.4%
17,NC(=O)COC(=O)c1cccc(NS(=O)(=O)/C=C/c2ccccc2)c1,-34.2%
18,Cc1cc(N2C(=O)c3ccc(C(=O)Nc4ccc(O)cc4C(=O)O)cc3C2=O)no1,-6.67%
19,CNC(=O)c1c(NC(=O)c2ccc(N3C(=O)CCC3=O)cc2)sc2c1CCC(C)C2 (stereo not shown),2.62%
20,CCOc1cc(N2CCCC2)ccc1[N+](=O)[O-],11.5%
21,O=C(COC(=O)c1ccc(O)cc1)Nc1cccc(S(=O)(=O)NC2=NCCCCC2)c1,6.34%
22,CN(C)S(=O)(=O)NCCNc1ccc(C(F)(F)F)cc1[N+](=O)[O-],1.95%
23,Cc1ccc(N=Cc2cc(Cl)cc(Cl)c2O)nc1,-10.9%

row,Structure (SMILES),"hERG current change (%, negative = inhibition) at 10uM"
1,C/C(=N\NC(=O)c1ccccn1)c1ccc(Cl)cc1,5.74%
2,CCCCNC(=O)c1cc(S(=O)(=O)N2CCCCC2)oc1C,1.42%
3,CCOC(=O)C(C)NC(=O)CCc1nnc2ccc(N3CCCCC3)nn12 (stereo not shown),13.6%
4,Cc1sc(NC(=O)C2CCCCC2C(=O)O)c(C(N)=O)c1-c1ccc(C(C)C)cc1 (stereo not shown),-9.39%
5,COC1=CCC2([N+](=O)[O-])CN(CC(=O)O)CC1([N+](=O)[O-])C2 (stereo not shown),10.5%
6,CCC(=O)Nc1ccc(OCC2CCCO2)cc1 (stereo not shown),7.08%
7,O=C(Nc1ccc(F)cc1)N(Cc1nnc2n1CCCCC2)c1ccccc1,7.06%
8,C=CCn1c(O)c(N=NC(=O)c2ccc3c(c2)OCO3)c2ccccc21,4.5%
9,CC(C)n1c(N2CCN(CC(=O)Nc3ccc4c(c3)OCCO4)CC2)nc2ccccc21,-65.4%
10,CCc1ccc(NC(=O)c2cc(-c3ccc4c(c3)OCO4)on2)cc1,0.435%
11,COc1cc(NC(=O)Cc2ccccc2OC)cc(OC)c1,-9.84%
12,NC(=O)COC(=O)c1c2c(nc3ccccc13)CCCC2,-53.3%
13,COc1cccc(N=c2oc3ccccc3cc2-c2nc3ccccc3[nH]2)c1,16.6%
14,CCOC(=O)c1nc2sc3c(c2c(=O)[nH]1)CCC(C)C3 (stereo not shown),10.3%
15,CN(CC(=O)Nc1cccc(F)c1)C(=O)c1cc(=O)[nH]c2ccccc12,0.0924%
16,O=C(OCC(O)COc1ccccc1)c1ccc([N+](=O)[O-])cc1 (stereo not shown),-7.79%
17,C=C1N(c2cccc(Cl)c2)C(=O)OC1(C)C,12.7%
18,COc1cc(C(=O)Nc2nc(C)c(Cc3ccc4c(c3)OCO4)s2)cc(OC)c1OC,-0.661%
19,O=C(O)CSc1ncnc2scc(-c3ccccc3)c12,13.1%
20,COc1ccc(NC(=O)c2cncn2-c2ccccc2)cc1,13.7%
21,CCNS(=O)(=O)c1ccc(NC(=S)NCC2CCCO2)cc1 (stereo not shown),9.03%
22,Cn1c2ccccc2c(=O)c2c(=O)n(Cc3ccco3)c(-c3ccc(Cl)cc3Cl)nc21,-2.26%
23,COc1ccc(C(=O)OCC(=O)N(C)C2CCS(=O)(=O)C2)cc1Br (stereo not shown),-15.2%

row,Structure (SMILES),"hERG current change (%, negative = inhibition) at 10uM"
1,COc1cc(C)c(CNCCc2c[nH]c3ccccc23)cc1C.O=C(O)C(=O)O,-36.9%
2,CCCC(=O)Nc1ccc(Cl)c(NC(=O)c2ccc(Br)o2)c1,-31.9%
3,COc1cc2c(cc1OC)C1(CCCC1)C(N)=C2C#N,-0.733%
4,CCOc1cc(/C=C/c2nc3ccccc3s2)ccc1OCC(=O)N1CCOCC1,-29.6%
5,CC(C)C1Oc2ccccc2N(CC(=O)N(Cc2ccccn2)CC2CCCO2)C1=O (stereo not shown),-12.6%
6,CCOP(=O)(OCC)C(Nc1ccccc1)c1ccc2c(c1)OCO2 (stereo not shown),-14.1%
7,Cc1cc(N)n(-c2ccc3ccccc3c2)n1,3.46%
8,C=CCN1C(=O)CS/C1=N\N=C\c1cccc([N+](=O)[O-])c1,-9.06%
9,CNC(=O)NC(=O)C(C)OC(=O)c1c(C)noc1C (stereo not shown),9.99%
10,COCCCNC(=O)c1ccc(CS(=O)(=O)c2ccc(Br)cc2)o1,-14.3%
11,CC(C)Oc1ccc(C(=O)O)c(C(=O)O)c1,-7.09%
12,CCc1ccc(NC(=O)CCc2ccc(C)o2)cc1,18.2%
13,CN1CCN(CC(O)Cn2c3ccccc3c3ccccc32)CC1.O=C(O)C(=O)O (stereo not shown),3.46%
14,CC(=O)N1N=C(c2ccccc2)CC1c1ccc(F)cc1 (stereo not shown),3.21%
15,CCOC(=O)N1CCN(C(=S)NC(=O)c2ccc(F)c(F)c2)CC1,-8.76%
16,Cc1ccc(NC(=O)c2ccccc2OCC(=O)c2ccc(F)cc2)cc1,-1.85%
17,Cc1cc(NC(=O)CCCC(=O)NCc2cccs2)no1,-10.1%
18,CN(C)c1cccc(C(=O)OCC(=O)Nc2ccccc2-c2ccccc2)c1,-14.2%
19,Cc1cc(C)c(NC(=O)CSc2ccc(-c3ccccn3)nn2)c(C)c1,17.9%
20,Cc1ccn2c(=O)nc(SCC(=O)NCc3ccccc3)nc2c1,0.12%
21,CCOC(=O)N1CCN(CC(O)c2ccc3cc[nH]c3c2)CC1 (stereo not shown),-30.4%
22,CCCCN1C2=NC(c3ccccc3)CN2c2ccccc21.Cl (stereo not shown),-69%

# — publication PMC4336329 (PLoS ONE, 2015)
